Laboratory results: a compilation of properties of binary mixtures (doi:10.1016/j.molliq.2018.01.167)
Some of these densities may be calculated back from excess volumes.

Test: xn = mol fraction of the nth substance listed
Conditions: 100 kPa

CC[n+]1ccn(C)c1.F[B-](F)(F)F + OCCO
mass density [kg/m3]
Conditions | 283.15 K | 293.15 K | 303.15 K | 313.15 K
x1 = 0.0483 | 1139.9 | 1132.7 | 1125.4 | 1118.1
x1 = 0.0765 | 1150 | – | 1135.3 | 1127.9
x1 = 0.178 | 1180 | – | – | –
x1 = 0.2747 | – | 1194.4 | 1186.5 | –
x1 = 0.3687 | 1220.2 | 1212.2 | 1204.2 | 1196.3
x1 = 0.4907 | 1238.9 | 1230.9 | 1222.9 | 1215.1
x1 = 0.5903 | 1251.6 | 1243.6 | 1235.7 | 1227.9
x1 = 0.6644 | 1259.9 | 1251.9 | 1244.1 | 1236.3
x1 = 0.7591 | – | 1261.8 | 1254 | 1246.4
x1 = 0.8666 | 1279.7 | 1272 | 1264.3 | 1256.7
x1 = 0.9378 | 1285.9 | 1278.2 | 1270.6 | 1263

CCCC[n+]1ccn(C)c1.F[B-](F)(F)F + OCCO
mass density [kg/m3]
Conditions | 283.15 K | 293.15 K | 303.15 K | 313.15 K
x1 = 0.04 | 1130.7 | 1123.5 | 1116.3 | –
x1 = 0.0899 | 1141.3 | – | – | –
x1 = 0.1905 | 1157.6 | – | 1142.4 | –
x1 = 0.2865 | 1168.8 | 1161.1 | 1153.4 | 1145.8
x1 = 0.3767 | – | 1169.3 | 1161.6 | 1154
x1 = 0.4983 | 1186.1 | 1178.5 | 1170.9 | 1163.3
x1 = 0.5814 | – | 1184 | 1176.5 | 1169
x1 = 0.6945 | – | 1190.7 | 1183.3 | 1176
x1 = 0.7958 | 1203.1 | – | – | 1181.4
x1 = 0.8951 | 1207.7 | 1200.6 | 1193.4 | 1186.2
x1 = 0.9577 | 1210.5 | – | 1196.2 | 1189.1
